# Measured values from the supplement of paper PMC8728848.
# The other results are listed elsewhere or left out.
# Experiments:
# Assay in all cases: glycan array binding signal (z-score within array); higher = stronger binding
# Conditions in all cases: glycan notation: IUPAC condensed, linker removed
# [1] = target: Fuc(a1-2)Gal(b1-4)GlcNAc(b1-3)Gal(b1-4)GlcNAc(b1-2)Man(a1-3)[Fuc(a1-2)Gal(b1-4)GlcNAc(b1-3)Gal(b1-4)GlcNAc(b1-2)Man(a1-6)]Man(b1-4)GlcNAc(b1-4)GlcNAc
# Procedure, shortened: (§1)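 The Consortium for Functional Glycomics database supplied 3228 glycan arrays, of which those lacking an available protein sequence were dropped. The binding signal, a within-array Z-score, was averaged across arrays of the same protein sequence and across linkers. Negative scores can be read as non-binding.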
# [2] = target: Fuc(a1-2)Gal(b1-4)GlcNAc(b1-3)Gal(b1-4)GlcNAc(b1-3)Gal(b1-4)GlcNAc
# Procedure, shortened: as §1
# [3] = target: Fuc(a1-2)Gal(b1-4)GlcNAc(b1-3)GalNAc
# Procedure, shortened: as §1
# [4] = target: Fuc(a1-2)Gal(b1-4)GlcNAc(b1-3)[Fuc(a1-2)Gal(b1-4)GlcNAc(b1-6)]GalNAc
# Procedure, shortened: as §1
# [5] = target: Fuc(a1-2)Gal(b1-4)GlcNAc(b1-3)[Fuc(a1-3)[Gal(b1-4)]GlcNAc(b1-6)]Gal(b1-4)Glc
# Procedure, shortened: as §1
# [6] = target: Fuc(a1-2)Gal(b1-4)GlcNAc(b1-6)GalNAc
# Procedure, shortened: as §1
# [7] = target: Fuc(a1-2)Gal(b1-4)GlcNAc6S
# Procedure, shortened: as §1
# [8] = target: Fuc(a1-2)Gal(b1-4)[Fuc(a1-3)]GlcNAc
# Procedure, shortened: as §1
# [9] = target: Fuc(a1-2)Gal(b1-4)[Fuc(a1-3)]GlcNAc(b1-2)Man(a1-3)[Fuc(a1-2)Gal(b1-4)[Fuc(a1-3)]GlcNAc(b1-2)Man(a1-6)]Man(b1-4)GlcNAc(b1-4)[Fuc(a1-6)]GlcNAc
# Procedure, shortened: as §1
# [10] = target: Fuc(a1-2)Gal(b1-4)[Fuc(a1-3)]GlcNAc(b1-2)[Fuc(a1-2)Gal(b1-4)[Fuc(a1-3)]GlcNAc(b1-4)]Man(a1-3)[Fuc(a1-2)Gal(b1-4)[Fuc(a1-3)]GlcNAc(b1-2)Man(a1-6)]Man(b1-4)GlcNAc(b1-4)GlcNAc
# Procedure, shortened: as §1
# [11] = target: Fuc(a1-2)Gal(b1-4)[Fuc(a1-3)]GlcNAc(b1-3)Gal(b1-4)[Fuc(a1-3)]GlcNAc
# Procedure, shortened: as §1
# [12] = target: Fuc(a1-2)Gal(b1-4)[Fuc(a1-3)]GlcNAc(b1-3)Gal(b1-4)[Fuc(a1-3)]GlcNAc(b1-3)Gal(b1-4)[Fuc(a1-3)]GlcNAc
# Procedure, shortened: as §1
# [13] = target: Fuc(a1-2)Gal(b1-4)[Fuc(a1-3)]GlcNAc(b1-3)GalNAc
# Procedure, shortened: as §1
# [14] = target: Fuc(a1-2)Gal(b1-4)[Fuc(a1-3)]GlcNAc(b1-3)[Neu5Ac(a2-6)Gal(b1-4)GlcNAc(b1-6)]Gal(b1-4)Glc
# Procedure, shortened: as §1
# [15] = target: Fuc(a1-2)Gal3S(b1-4)GlcNAc
# Procedure, shortened: as §1
# [16] = target: Fuc(a1-2)Gal6S(b1-3)GlcNAc
# Procedure, shortened: as §1
# [17] = target: Fuc(a1-2)Gal6S(b1-3)GlcNAc6S
# Procedure, shortened: as §1
# [18] = target: Fuc(a1-2)Gal6S(b1-4)Glc
# Procedure, shortened: as §1
# [19] = target: Fuc(a1-2)Gal6S(b1-4)Glc6S
# Procedure, shortened: as §1
# [20] = target: Fuc(a1-2)[Gal(a1-3)]Gal
# Procedure, shortened: as §1
# [21] = target: Fuc(a1-2)[Gal(a1-3)]Gal(b1-3)GalNAc
# Procedure, shortened: as §1
# [22] = target: Fuc(a1-2)[Gal(a1-3)]Gal(b1-3)GalNAc(b1-3)Gal(a1-4)Gal(b1-4)Glc
# Procedure, shortened: as §1
# [23] = target: Fuc(a1-2)[Gal(a1-3)]Gal(b1-3)GlcNAc
# Procedure, shortened: as §1
# [24] = target: Fuc(a1-2)[Gal(a1-3)]Gal(b1-3)GlcNAc(b1-2)Man(a1-3)[Fuc(a1-2)[Gal(a1-3)]Gal(b1-3)GlcNAc(b1-2)Man(a1-6)]Man(b1-4)GlcNAc(b1-4)GlcNAc
# Procedure, shortened: as §1
# [25] = target: Fuc(a1-2)[Gal(a1-3)]Gal(b1-3)GlcNAc(b1-2)Man(a1-3)[Fuc(a1-2)[Gal(a1-3)]Gal(b1-3)GlcNAc(b1-2)Man(a1-6)]Man(b1-4)GlcNAc(b1-4)[Fuc(a1-6)]GlcNAc
# Procedure, shortened: as §1
# [26] = target: Fuc(a1-2)[Gal(a1-3)]Gal(b1-3)GlcNAc(b1-3)GalNAc
# Procedure, shortened: as §1
# [27] = target: Fuc(a1-2)[Gal(a1-3)]Gal(b1-3)GlcNAc(b1-6)GalNAc
# Procedure, shortened: as §1
# [28] = target: Fuc(a1-2)[Gal(a1-3)]Gal(b1-4)Glc
# Procedure, shortened: as §1
# [29] = target: Fuc(a1-2)[Gal(a1-3)]Gal(b1-4)GlcNAc
# Procedure, shortened: as §1
# [30] = target: Fuc(a1-2)[Gal(a1-3)]Gal(b1-4)GlcNAc(b1-2)Man
# Procedure, shortened: as §1
binder,measurement,setting,value
"a L Fucosidase (Streptosporangium roseum), D2B1P1_STRRD (protein) MRRKLLLVPAVGLLVIGSIFATQPVASADTPPVYEPTVESLNSHPVPQWFNDDKFGIFIHWGAYSVPAWGPRGSYAEWYGNYMNAGGSATNAHHKATYGQDFNYDAFLQQWKAEKFDPADWVKLFKDAGAKYFVLTSKHHEGMALWDSKSSGRDSVDLGPGRDLAKELFDAARKDEAKLKAGFYYSLYEWYNPAYTGRPATNPYTGAEIPYTGAPGGGDYVKDYMLPQMRELIDGYDPDIIWCDGQWEKPASYWNTAGVIADYYNKALNSGKEVAVANRCKIQSGNLDSPELDFQTPEYTVKPDIDPVKWESSRGIAHSYGYNQNEPEEDHLTSDQLVDSLVDIVSKNGNLLLDIGPKADGTIPEIQRQRLLDIGAWLKANGEAIYGTTYWNRAEEKGGPDDVRYTAKDATLYATALKWPGEQLTLGADLPVDHSTRITMLGSGARLSWSRDEQGRVVVNTPQEAGKHAYVFKIETPGVRSLLRTSSSLAKEIAPGRTISGELTVTNPGKRHTPATKLSLTVPQGWTATLGAPRVRPLGPGESVKVPISVSAPEGVAPAPYTLGLYQRTGRMGTTTALPLTVNRPNLSLGKPATQKSTGYDAPASRAVDGNTGGDWSAGSTTHTAEPEKQAWWQVDLGASARLDSVDVWNRLDCCADRLKDFWVMASDQPFTTDDLDQARTAPGVTAVHVGEQAGSPSKVKLPEGTRGRYVRIQLASPSNPLSLAEVQVRGSMARPNLSLGKPATQKSTGYDAPASRAVDGNTGGDWSAGSTTHTAEPEKQAWWQVDLGASARLDSVDVWNRLDCCADRLKDFWVMASDQPFTTDDLDQARTAPGVTAVHVGEQAGSPSKVKLPEGTRGRYVRIQLASPSNPLSLAEVQVRLEHHHHHHS",glycan array binding signal (z-score),[1],9.35
same,glycan array binding signal (z-score),[2],4.15
same,glycan array binding signal (z-score),[3],0.031
same,glycan array binding signal (z-score),[4],1.24
same,glycan array binding signal (z-score),[5],-0.506
same,glycan array binding signal (z-score),[6],4.78
same,glycan array binding signal (z-score),[7],-0.38
same,glycan array binding signal (z-score),[8],3.89
same,glycan array binding signal (z-score),[9],3.58
same,glycan array binding signal (z-score),[10],0.785
same,glycan array binding signal (z-score),[11],9.04
same,glycan array binding signal (z-score),[12],5.04
same,glycan array binding signal (z-score),[13],-0.291
same,glycan array binding signal (z-score),[14],-0.409
same,glycan array binding signal (z-score),[15],-0.258
same,glycan array binding signal (z-score),[16],-0.338
same,glycan array binding signal (z-score),[17],2.52
same,glycan array binding signal (z-score),[18],1.78
same,glycan array binding signal (z-score),[19],0.33
same,glycan array binding signal (z-score),[20],3.18
same,glycan array binding signal (z-score),[21],-0.442
same,glycan array binding signal (z-score),[22],-0.339
same,glycan array binding signal (z-score),[23],-0.14
same,glycan array binding signal (z-score),[24],-0.246
same,glycan array binding signal (z-score),[25],0.743
same,glycan array binding signal (z-score),[26],0.499
same,glycan array binding signal (z-score),[27],0.683
same,glycan array binding signal (z-score),[28],1.78
same,glycan array binding signal (z-score),[29],-0.134
same,glycan array binding signal (z-score),[30],0.117
